Experimental data reported in publication PMC9413201 (2022).

Molecular target: T1, FtsB-derived peptide 24 64-87 (Escherichia coli, UniProt P0A6S5, N-terminal FITC-PEG2)
T1 chain: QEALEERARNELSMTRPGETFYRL
Experiment: fluorescence polarization

B1: FtsQ […] (protein)
chain: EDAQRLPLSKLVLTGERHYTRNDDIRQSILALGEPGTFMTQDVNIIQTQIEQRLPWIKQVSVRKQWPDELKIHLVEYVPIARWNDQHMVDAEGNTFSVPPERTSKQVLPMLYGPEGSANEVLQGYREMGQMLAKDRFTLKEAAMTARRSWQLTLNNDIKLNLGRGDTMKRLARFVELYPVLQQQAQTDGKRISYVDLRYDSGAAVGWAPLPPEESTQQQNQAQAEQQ
For B1, the Kd was 9.6 µM.
